# Assay results taken from PubChem BioAssay AID485341 (National Center for Advancing Translational Sciences (NCATS), 2010).
# Among all 330,000 compounds or so, about 1,700 (0.52%) were called active. Inconclusive means that the source gave no clear call. Such entries were picked first, then a sample of the others. Calls come from the whole dose curve; as a rule, active = well fitted inhibition curve with a large enough effect; inconclusive = small, poorly fitted or top-dose-only effect; inactive = no such curve, though single readings can be large or run the other way. Where the call is inconclusive, the potency comes from a doubtful curve fit.
# Molecular target: Beta-lactamase (Escherichia coli (strain K12)) (UniProt P00811)
# Sequence of UniProt P00811 (P00811 whole entry, looked up): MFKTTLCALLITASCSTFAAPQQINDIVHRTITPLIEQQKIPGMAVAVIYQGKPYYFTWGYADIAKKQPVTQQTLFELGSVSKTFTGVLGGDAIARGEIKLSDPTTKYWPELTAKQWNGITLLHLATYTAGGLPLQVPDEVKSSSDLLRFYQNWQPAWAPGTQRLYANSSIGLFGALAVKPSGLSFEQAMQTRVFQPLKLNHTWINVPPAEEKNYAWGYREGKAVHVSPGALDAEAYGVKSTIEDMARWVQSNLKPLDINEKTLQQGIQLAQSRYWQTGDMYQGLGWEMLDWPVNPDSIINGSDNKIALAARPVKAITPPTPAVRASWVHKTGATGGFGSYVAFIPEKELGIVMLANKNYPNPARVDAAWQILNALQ
# Assay: qHTS Inhibitors of AmpC Beta-Lactamase (assay without detergent); note: nearly all actives have a fitted effect of over 20% in size
# Conditions: AmpC nitrocefin hydrolysis, absorbance 480 nm, 0.0001% Triton; series mostly up to 57.1 µM
# Summary of the method: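 AmpC (5.3 nM in the dispensed reagent) in 20 mM phosphate pH 7.0 with 0.01% (detergent screen) or 0.0001% Triton X-100 was preincubated with compounds for 15 min at room temperature. Nitrocefin was then added from an 800 uM solution, and hydrolysis was followed at 480 nm.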
# Potency is the fitted concentration of half-maximal effect; tags give direction and shape of the fitted curve.
row,Structure (SMILES),Potency
1,CS(=O)(=O)N(CC(=O)Nc1ccccc1Sc1ccccc1)c1cccc(Br)c1,"inconclusive: 2.24 µM [inhibitor, partial curve, poor fit]"
2,CCOc1ccccc1CNC(=O)c1ccc(NC(=O)C2=C(C)OCCS2)cc1,inactive
3,CCC(NC(=O)c1ccccc1NC(=O)c1ccco1)C(=O)NNC(=O)c1ccc(OC)cc1 (stereo not drawn),"inconclusive: 28.2 µM [inhibitor, single point]"
4,Cc1sc(NC(=O)CN2CCCC2)nc1-c1ccc2c(c1)CCN2C(=O)c1cccc(F)c1,inactive
5,O=[N+]([O-])c1ccc2nc(/C=C/c3ccc(Cl)cc3)[nH]c2c1,"inconclusive: 8.91 µM [inhibitor, partial curve]"
6,O=C(NCC(c1ccco1)N1CCOCC1)c1c(F)cccc1F (stereo not drawn),"inconclusive: 35.5 µM [inhibitor, single point]"
7,O=C(COc1ccc(F)cc1)c1c(O)cc(O)cc1O,"inconclusive: 1.26 µM [inhibitor, full curve, poor fit]"
8,Cc1cc(Br)c(NC(=O)CN2CC=C(c3ccccc3)CC2)c(Br)c1,"inconclusive: 3.55 µM [inhibitor, single point]"
9,Cc1nnc(SCC(=O)Nc2cccnc2Cl)s1,"inconclusive: 15.8 µM [inhibitor, single point]"
10,N#CCC1c2ccccc2CCN1C(=O)Nc1ccc(Cl)cc1 (stereo not drawn),"inconclusive: 1.26 µM [inhibitor, partial curve, poor fit]"
11,N#CC1=C(c2ccc(-c3ccccc3)cc2)COC1=O,"inconclusive: 20 µM [inhibitor, partial curve]"
12,Cc1ccc(C)n1-c1ccc(C(=O)Nc2ccccc2)cc1,inactive
13,O=C1NC(=O)N(CCc2ccc(F)cc2)C(=O)/C1=C\C=C\c1ccccc1,active: 3.55 µM
14,CCOc1ccc(NC(=O)CC2NCCNC2=O)cc1 (stereo not drawn),"inconclusive: 1.26 µM [inhibitor, partial curve, poor fit]"
15,COc1ccccc1-c1cc(C(=O)Nc2sc3c(c2C#N)CCC(C)C3)c2ccccc2n1 (stereo not drawn),"inconclusive: 14.1 µM [inhibitor, partial curve, poor fit]"
16,Cc1ccc(-c2nc(CS(=O)(=O)CC(=O)N3CCCCCC3)c(C)o2)cc1,active: 6.31 µM
17,COC(=O)c1sc(N)nc1C(C)(C)C,"inconclusive: 7.94 µM [inhibitor, single point]"
18,CC1CCCC(C)N1C(=O)COC(=O)c1cc([N+](=O)[O-])ccc1N1CCOCC1 (stereo not drawn),"inconclusive: 39.8 µM [inhibitor, single point]"
19,Oc1ccc(-n2nnnc2SCc2c(F)cccc2Cl)cc1,"inconclusive: 7.08 µM [inhibitor, partial curve]"
20,O=CN1CCN(C(=O)c2cccc3c2-c2ccccc2C3=O)CC1,inactive
21,O=C(CCS(=O)(=O)c1ccc(Cl)cc1)Nc1nnc(-c2ccco2)o1,"inconclusive: 39.8 µM [inhibitor, single point]"
22,COc1cccc(CC(=O)OC(C)C(=O)Nc2ccc(Cl)cn2)c1 (stereo not drawn),inactive
23,COC(=O)c1c(NC(NC(C)=O)C(Cl)(Cl)Cl)sc2c1CCCC2 (stereo not drawn),inactive
24,C/C(=N\Nc1nc(N)cc(Cl)n1)c1ccc(Cl)c(Cl)c1,"inconclusive: 7.08 µM [inhibitor, full curve, poor fit]"
25,CNc1nc(SC)nc2ccsc12,"inconclusive: 6.31 µM [inhibitor, single point]"

row,Structure (SMILES),Potency
1,O=C(Nc1cccc(NC(=O)c2cccs2)c1)c1ccc2c(c1)OCO2,active: 10 µM
2,N=C1/C(=C\c2ccc(-c3cccc(Cl)c3)o2)C(=O)N=C2SC=C(c3ccccc3)N12,active: 15.8 µM
3,COc1ccc([C@]23Cc4cc(C#N)ccc4C(O2)c2c(c4ccc(OC)cc4oc2=O)O3)cc1,"inconclusive: 7.08 µM [inhibitor, single point]"
4,COc1ccc(COc2cc(-c3cccc(OC)c3)nc3ccc(NC(=O)c4ccc(Cl)cc4)cc23)cc1,"inconclusive: 8.91 µM [inhibitor, partial curve]"
5,C/C(=N\NC(=O)c1cc2ccccc2cc1O)c1ccc(C)o1,active: 7.94 µM
6,O=C(CCn1cnnn1)Nc1ccc(F)cc1,inactive
7,COc1ccccc1CN1CCN(C(=O)COc2ccccc2)CC1,"inconclusive: 1.12 µM [inhibitor, partial curve, poor fit]"
8,Cc1ccc(Cl)cc1N1CCN(C(=O)C2(S(=O)(=O)c3ccc(Cl)cc3)CC2)CC1,inactive
9,O=C(CSc1nnc(-c2ccc(F)cc2)o1)c1ccc2c(c1)OCCO2,"inconclusive: 39.8 µM [inhibitor, single point]"
10,COc1ccc(OC)c(NCc2nnc(-c3ccccc3)o2)c1,inactive
11,CCCCN(CCCC)CCCOC(=O)c1ccc(N)cc1,"inconclusive: 7.94 µM [inhibitor, full curve, poor fit]"
12,CCOC(=O)COn1c(=O)c(-c2ccc(OC)cc2)[n+]([O-])c2ccccc21,inactive
13,COc1ccc(OC)c(S(=O)(=O)NC2CC(=O)N(c3cccc(F)c3)C2)c1 (stereo not drawn),"inconclusive: 35.5 µM [inhibitor, single point]"
14,O=C(Nc1cccc(Br)c1)c1ccccc1-c1ccccc1,inactive
15,COc1ccccc1NC(=O)c1ccc(NC(=O)COC(=O)CCC2CCCC2)cc1,"inconclusive: 31.6 µM [inhibitor, single point]"
16,O=C(Nc1cccc([N+](=O)[O-])c1)c1ccc2nc(N3C(=O)CCC3=O)sc2c1,"inconclusive: 11.2 µM [inhibitor, partial curve]"
17,Cc1ccc(SCc2cc(-c3ccc(Cl)cc3)on2)cc1,"inconclusive: 6.31 µM [inhibitor, single point]"
18,COc1ccc(NC(=O)CC2C(=O)N(c3cccc(OC)c3)C(=O)N2Cc2ccco2)cc1 (stereo not drawn),inactive
19,O=C(COC(=O)COc1cccc(C(F)(F)F)c1)NC1CCS(=O)(=O)C1 (stereo not drawn),"inconclusive: 39.8 µM [inhibitor, single point]"
20,OC(CSc1c(Cl)cccc1Cl)CN1CCN(c2ccc(F)cc2)CC1 (stereo not drawn),"inconclusive: 5.62 µM [inhibitor, single point]"
21,COc1ccc(-c2cn3cccnc3n2)cc1NC(=O)c1cccs1,inactive
22,COc1ccc(CCNC(=O)CSc2nnnn2-c2ccccc2OC)cc1OC,"inconclusive: 7.08 µM [inhibitor, full curve, poor fit]"
23,Oc1c(Cl)cc(Cl)cc1C1=NNC(c2ccc(Cl)cc2)C1 (stereo not drawn),"inconclusive: 1.26 µM [inhibitor, full curve, poor fit]"
24,Cc1ccc(C)c(OCc2ccc(C(=O)NN)o2)c1,inactive
25,c1ccc2[nH]c3cc4ncnc4cc3nc2c1,inactive

row,Structure (SMILES),Potency
1,O=C(NCCS(=O)(=O)N1CCN(Cc2ccccc2)CC1)c1ccccc1,"inconclusive: 39.8 µM [inhibitor, single point]"
2,O=C(NCC1CCCO1)c1nn2c(C(F)(F)F)cc(-c3cc(Br)cs3)nc2c1Br (stereo not drawn),inactive
3,CN1CCc2nc(SCC(=O)Nc3cccc(F)c3)c(C#N)c(-c3cccs3)c2C1,inactive
4,CCOc1ccccc1Nc1nnc(SCC(=O)N2CCCC2)s1,inactive
5,CC(C)OC(=O)c1c(NC(=O)c2cnn3c2NC(c2ccccc2)CC3C(F)F)sc2c1CCCC2 (stereo not drawn),"inconclusive: 3.16 µM [inhibitor, single point]"
6,O=C(Nc1cccc(-c2nc3ccccc3s2)c1)c1cc(=O)c2ccccc2o1,inactive
7,c1ccc2c(-n3cccn3)cccc2c1,inactive
8,Cc1ccc(C(=O)OCC(=O)Nc2c(C)n(C)n(-c3ccccc3)c2=O)cc1[N+](=O)[O-],inactive
9,Cc1ccc(NC(=O)CSc2nnc(N)s2)cc1S(=O)(=O)N1CCCCC1,"inconclusive: 8.91 µM [inhibitor, partial curve]"
10,Cc1cc(C)n(C(C[N+](=O)[O-])c2ccc(Cl)cc2)n1 (stereo not drawn),active: 17.8 µM
11,S=c1[nH]c(-c2ccccc2)cn1/N=C/c1cccc2ccccc12,active: 2.51 µM
12,O=C(NCc1ccccc1)C1=C[C@@H](c2coc3ccccc3c2=O)C[C@@H](OCc2ccc(CO)cc2)O1,inactive
13,O=C(Nc1nncs1)c1ccc(Br)c(S(=O)(=O)N2CCCC2)c1,"inconclusive: 6.31 µM [inhibitor, single point]"
14,O=C(Nc1ccc(Br)cc1)c1ccc(Br)c(S(=O)(=O)Nc2cccnc2)c1,"inconclusive: 14.1 µM [inhibitor, partial curve]"
15,O=C(O)CCn1cc(C=C2C(=O)NC(=S)NC2=O)c(-c2cccc(Cl)c2)n1,"inconclusive: 35.5 µM [inhibitor, single point]"
16,CN(C)c1ccc(/C=N/n2cnn(Cc3ccccc3Cl)c2=S)cc1,inactive
17,CCC(CO)n1cnnc1-c1ccncc1 (stereo not drawn),"inconclusive: 5.01 µM [inhibitor, single point]"
18,CCC(C)(C)NC(=O)C(c1ccc(F)cc1)N(CCOC)C(=O)CCC(=O)Nc1nccs1 (stereo not drawn),inactive
19,O=C1c2ccccc2C(=O)N1CCn1c(=O)oc2ccccc21,"inconclusive: 0.141 µM [inhibitor, full curve, poor fit]"
20,O=C(O)/C=C/C(=O)Nc1ccc(C2(c3ccc(NC(=O)/C=C/C(=O)O)cc3)c3ccccc3-c3ccccc32)cc1,active: 12.6 µM
21,O=C(COC(=O)c1cc(S(=O)(=O)NCc2ccccc2)ccc1O)c1cc2ccccc2o1,"inconclusive: 14.1 µM [inhibitor, partial curve]"
22,COc1ccc(C(=O)CSc2nc3[nH]ncc3c(=O)[nH]2)cc1,inactive
23,O=C(Nc1ccccc1)Nc1ccc(NC(=O)c2ccccc2O)cc1,"inconclusive: 1.26 µM [inhibitor, full curve, poor fit]"
